Measurements: the supplement of paper PMC11417369
The list shows a part of the results.

Each sequence was assayed on PfHDP1 homeodomain (GST-tagged) (assay: gcPBM binding intensity (ln(normalized median fluorescence intensity)); higher = stronger DNA binding).
Procedure, shortened: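 The binding buffer was 1× PBS containing 1% milk, 0.2 mg/ml BSA, 0.5% salmon testes DNA and 0.03% Triton X-100. In it, GST-tagged P. falciparum DNA-binding domains expressed in E. coli were applied for 1 h to an Agilent 4 × 180k array of primer-extended double-stranded 36-bp intergenic genomic probes plus negative controls. Binding intensity, read with Alexa488 anti-GST antibody and a 488 nm scan, is the highest Masliner-normalised natural-log median intensity across replicate spots of either probe orientation.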

Sequence	gcPBM binding intensity (ln)
AATATTCGTAATTGATGTACTTGTAATTCATACATT [XGTACX_site8314]	6.32
TTTATAATAAAATTTTTACACACTTTAAAAAAAAAA [CACACA_site8070]	6.27
TATAATAAAAATAATACACACATATATAGCAATCGT [CACACA_site3241]	7.17
AATAAATATCTGTACACACACAAATAAATACATATC [CACACA_site5108]	6.63
CAGAATAATTTTATCGGTACACACTGTATGCATAAT [XGTACX_site736]	6.88
TTTATGTATTTTTATGCACACATGCGTGGCTTATAT [CACACA_site4374]	10.4
TACGGACATACTAACGGACACACGTAAGAAAAAAAA [CACACA_site602]	6.44
TCTTTGTACTTTCACATGTACACCCAAATGGAAATT [CACACA_negctrl_site1442]	6.9
AAATAAATCTTATGCACACAAATAATTAATGAAACA [CACACA_site5011]	10.6
ATATTTATGGAATATACACACATGTATAATTACATA [CACACA_site7045]	6.35
AGGACTAATATTTGAACACACATATAATAAATACAT [CACACA_site6068]	6.55
GTTTGGTGGTGTTTTGGTACGTACGGGGGTGTATGT [XGTACX_site1211]	7.39
TTTCCATTTTCTCTATGTACATAAAAATGAGATAAA [XGTACX_site5689]	6.62
CACACGCACGGACACACACACAAAAAAAAAAAGAAA [CACACA_site6378]	7.27
AAGACCATATGAATAATGCACACGTTTTAAAATATT [CACACA_site2323]	10.1
TAAATGTTAAAATTCACACAAATATGTGCGGAATAT [CACACA_site5055]	7.11
GGAATTTTTATTCGAAGTACTGTTGTGAGTAATAAA [XGTACX_site8599]	6.76
TGCAAGGAACAACACACACACACATAAATGTATATA [CACACA_site8149]	6.75
ACCCATTTGATAATAATGCACACCACATATATTTAT [CACACA_site3061]	9.94

Sequence	gcPBM binding intensity (ln)
ATATATAATATATACACACACATGTATATATAAATA [CACACA_site1968]	6.85
TTTGACTAAATTAAATATTAAAGTATGGATTATTCT [CACACA_negctrl_site833]	5.98
ATATGTATTTATGTATTTATGTATTTTTATATTTTT [CACACA_negctrl_site595]	6.37
AAAAAAAAAAAACACACACACACATTCAATATAAAA [CACACA_site40]	6.62
TGGAAAATAAAGTACGCACACAAAAATTCTCTTCAT [CACACA_site2327]	6.8
ATATTATTTTATGCTACACACATTTTCTCTTATAAA [CACACA_site943]	7.25
TTCAAACATATTAATTGTACATACAACAAAACCATG [XGTACX_site5149]	6.7
ATAAGTAATATAATATGTACATATATATATATATAT [XGTACX_site3818]	9.23
AAGAAATAAATACATACACACATATATATATATATA [CACACA_site3362]	9.56
AGAATAATTTTATCGGTACACACTGTATGCATAATA [CACACA_site374]	7.05
ATGCAAAATAAAGAAGCACACAAAAATGAAATATAT [CACACA_site9217]	6.87
GGAAATTTCAATATTTGTACATATATATATATATAT [XGTACX_site3222]	9.34
TATATATTGTTATAATGTACATAATATTTTATCTGC [XGTACX_site4983]	6.48
TACAGATATTTTATTTCACACATTTTATCATTTTCT [CACACA_site5701]	6.68
TTCAAAAAAGGAAAGTTGCACTTGATACGCTTATTA [GTGCAC_site9411]	7.38
TTTTTTATTTTTTGTTATATTTATAATAATTTATGA [XGTACX_negctrl_site260]	6.46
TACTTTACACATATTTTTAATTATTCTGAATTCAAA [GTGCAC_negctrl_site253]	6.79
ATATATATATATGTAGTGCATTTTATATATAATATT	9.42
TAAAAGTTCACCTGTACACACATATATATATGTACA [CACACA_site1707]	6.58

Sequence	gcPBM binding intensity (ln)
TTCTTTATTTTTTCTACACACATTATATATTCAAAG [CACACA_site5866]	7.44
AAATATTAAATGACAAAAAAAAAAAAAAAAGGGGTT [CACACA_negctrl_site951]	6.02
TATTTTGAAAATAAAAGTACAAATTTTATATTTAAA [XGTACX_site3238]	6.02
TATTTATATTCATAATGTACATTCAATTATTGTTTT [XGTACX_site4191]	6.76
ATATAAAATAATACATGTACATATTATATATATATA [XGTACX_site1082]	8.59
TATATACGCATTTTTATACACACTTGTTTTATAAAA [CACACA_site727]	6.83
TTCTATATTTCTTTTTGTACATATAAATTCAAATAA [XGTACX_site2476]	6.49
TATAATATATTTTAATGTACGTACATCCCGATTAAT [XGTACX_site7651]	6.63
ATTTTTTTTTCTTAATGTACATACCAAAAAGAAAGA [XGTACX_site5471]	6.72
TATTAATATATATGTTGTACAAGTTTTTTTTTTTTT [XGTACX_site5865]	6.47
GATAAAATATGTTGCCGTACATATTCATATACTTAA [XGTACX_site4776]	6.35
TTTGTCTGCATACGCACACACGTGTACCATCTTATG [CACACA_site4784]	7.89
ATATTAGTCGAATGATGTACACACATACAAAACATT [XGTACX_site8613]	6.65
ATCAAATTTGGACATGCATGTGTGTGTAAAACCATG [TGCATGCA_site309]	7.91
AATATTTTTTAAATGTGTACATAGGTATAGCACACA [XGTACX_site8690]	6.67
AATTATTCTCTTTTCATTTGAACAATATGCTTAAAA [CACACA_negctrl_site995]	6.59
GACTGCACTTTAAGCACACAAATATATTTTTTTTAT [CACACA_site1249]	7.88
ACACATTCGAAAAATTGTACATATATAACAGAATAT [XGTACX_site7106]	6.66
AGTCATATAAATAGTAGTACTGTGTGTGAAGAAAAA [XGTACX_site5056]	6.81
